One may read the EC50 as the concentration needed to bring the measured effect to its halfway point.

Assay [1] deals with A431 cells. The assay can be described thus: cells. The conditions noted are these: Homo sapiens, A-431, 24 h, read-out: A431 viability EC50.
Assay [2] has as its system H929 cells. Nature of the assay: cells. The conditions noted are these: Homo sapiens, NCI-H929, 24 h, read-out: H929 viability EC50.

For `Fc1cccc(Cn2cnc3ccc(-c4cc(N[C@H]5CC[C@H](NCc6ccccn6)CC5)ncc4Cl)cc32)c1` [Example 225, trans-N-{5-chloro-4-[1-(3-fluorobenzyl)-1H-benzimidazol-6-yl]pyridin-2-yl}-N′-(pyridin-2-ylmethyl)cyclohexane-1,4-diamine], the half-maximal effective concentration (EC50) in assay [1] was 0.027 µM; in assay [2], 0.076 µM.

With `Fc1cccc(Cn2cnc3ccc(-c4cc(N[C@H]5CC[C@H](NCc6ccncc6)CC5)ncc4Cl)cc32)c1` [Example 227, trans-N-{5-chloro-4-[1-(3-fluorobenzyl)-1H-benzimidazol-6-yl]pyridin-2-yl}-N′-(pyridin-4-ylmethyl)cyclohexane-1,4-diamine], the EC50 in assay [1] came to 0.024 µM; in assay [2], 0.096 µM.

As to `COCCCN[C@H]1CC[C@H](Nc2cc(-c3ccc4ncn(Cc5cccc(F)c5)c4c3)c(Cl)cn2)CC1` [Example 245, trans-N-{5-chloro-4-[1-(3-fluorobenzyl)-1H-benzimidazol-6-yl]pyridin-2-yl}-N′-(3-methoxypropyl)cyclohexane-1,4-diamine], the EC50 in assay [1] stood at 0.031 µM; in assay [2] it was 0.079 µM.

The values above are taken from US9650358B2 (priority 2013, dated 2017).
